# Measurements published in PubChem BioAssay AID1645882 (National Center for Advancing Translational Sciences (NCATS), 2021).
# The whole screen tested about 16,000 compounds, of which about 120 (0.75%) were called active. Another 4% or so got no clear call; they are omitted. Calls follow the shape of the dose curve; as a rule, active = well fitted inhibition curve with a large enough effect; inconclusive = small, poorly fitted or top-dose-only effect; inactive = no such curve, though single readings can be large or run the other way. Some of the results follow.
# Target: Rap guanine nucleotide exchange factor 3 (Homo sapiens) (UniProt O95398)
# Assay: Validation qHTS for antagonist of cAMP-regulated guanine nucleotide exchange factor 3 (EPAC1); also: nearly all actives have a fitted effect of over 75% in size
# Conditions: EPAC1 Rap1B-BODIPY-GDP exchange, fluorescence; series mostly up to 150 µM; activity change, negative = inhibition: at the top concentration
# Procedure, shortened: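 EPAC1 (100 nM) mixed with 250 nM RAP1B-BODIPY-GDP and 50 uM GDP; compounds in concentration series, 5 min at room temperature. Fluorescence (ex 480/em 540 nm) read every 5 min for 30 min; normalized to ATA control and DMSO.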
# Sequence of UniProt O95398 (O95398 whole entry, looked up): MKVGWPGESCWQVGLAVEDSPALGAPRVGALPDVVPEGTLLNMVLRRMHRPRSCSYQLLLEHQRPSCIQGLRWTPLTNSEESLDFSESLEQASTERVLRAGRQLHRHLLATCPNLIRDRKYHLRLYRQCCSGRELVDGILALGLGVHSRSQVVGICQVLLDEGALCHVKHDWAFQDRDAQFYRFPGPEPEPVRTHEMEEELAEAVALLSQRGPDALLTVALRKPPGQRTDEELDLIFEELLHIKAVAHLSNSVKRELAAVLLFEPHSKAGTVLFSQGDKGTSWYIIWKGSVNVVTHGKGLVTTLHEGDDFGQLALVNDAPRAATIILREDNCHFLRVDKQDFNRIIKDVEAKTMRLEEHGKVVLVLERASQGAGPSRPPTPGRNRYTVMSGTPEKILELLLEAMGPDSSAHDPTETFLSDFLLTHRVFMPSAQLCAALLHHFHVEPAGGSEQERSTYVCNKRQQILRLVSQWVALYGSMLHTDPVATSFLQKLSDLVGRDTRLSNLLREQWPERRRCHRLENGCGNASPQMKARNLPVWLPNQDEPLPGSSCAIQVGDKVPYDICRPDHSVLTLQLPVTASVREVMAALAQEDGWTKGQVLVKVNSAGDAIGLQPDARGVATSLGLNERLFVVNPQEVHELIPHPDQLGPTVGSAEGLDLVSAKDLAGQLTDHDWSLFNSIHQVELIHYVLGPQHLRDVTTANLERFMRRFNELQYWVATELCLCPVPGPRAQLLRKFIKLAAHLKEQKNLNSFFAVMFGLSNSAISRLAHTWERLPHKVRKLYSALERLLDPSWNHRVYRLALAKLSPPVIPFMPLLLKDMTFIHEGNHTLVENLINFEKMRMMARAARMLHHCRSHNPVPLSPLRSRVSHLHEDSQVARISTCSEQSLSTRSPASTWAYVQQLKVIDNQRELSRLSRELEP
row,Compound,"activity change, negative = inhibition"
1,CCCCN(CCC#N)c1ccc(/C=C/c2ccnc3ccccc23)cc1,inactive: 16.2%
2,Nc1ncnc2c1ncn2[C@@H]1O[C@H](C(=O)NC2CC2)[C@@H](O)[C@H]1O,inactive: 30%
3,COc1ccc(C(=O)N2CCC3(CCCN(C)C3)CC2)cc1,inactive: 12.4%
4,COc1cc(C2Oc3cc(C4Oc5cc(O)cc(O)c5C(=O)C4O)ccc3OC2CO)ccc1O (stereo not given),inactive: 21%
5,COc1ncc2nc(-c3cccs3)c(=O)n(-c3ccccc3)c2n1,inactive: -0.0001%
6,CC(C)CNC(=O)c1cn(C2CCN(Cc3nc4ccccc4s3)CC2)nn1,inactive: 2.49%
7,CCCCCCCCCCCCCCCCCC(=O)NCC(COP(=O)([O-])OCC[N+](C)(C)C)OCC (stereo not given),inactive: -4.6% [at 75.8 µM]
8,CCC(=O)O[C@@H]1CC(=O)O[C@H](C)C/C=C/C=C/[C@@H](O)[C@H](C)C[C@H](CC=O)[C@H](OC2O[C@H](C)[C@@H](O[C@H]3C[C@@](C)(O)[C@@H](OC(=O)CC)[C@H](C)O3)[C@H](N(C)C)[C@H]2O)[C@H]1OC (stereo not given in full),inactive: 10.3% [at 39.6 µM]
9,COc1ccc(-n2c(=O)c(-c3cccs3)nc3cnc(N4CCOCC4)nc32)cc1,inactive: 0.0203%
10,c1ccc2c(c1)CCCN2,inactive: 9.21%
11,CCN(CC)CCOc1ccc(C(O)(Cc2ccc(Cl)cc2)c2ccc(C)cc2)cc1 (stereo not given),inactive: 5.4%
12,COc1ccc(-c2coc3c(O)c(OC)ccc3c2=O)cc1,inactive: -4.78%
13,Cc1cnc(-n2ncc(C(=O)N(CCO)C(C)C)c2-c2cccs2)nc1-c1ccc(F)cc1,inactive: 13%
14,COc1cccc(Cn2c(=O)c(-c3ccccc3)nc3cnc(N4CCNCC4)nc32)c1,inactive: 27.3%
15,CCCN(CCC)S(=O)(=O)c1ccc(C(=O)O)cc1,inactive
16,CC1CC2C3CCC4=CC(=O)C=C[C@]4(C)[C@@]3(F)[C@@H](O)C[C@]2(C)[C@@]1(O)C(=O)CO (stereo not given in full),inactive: -1.97% [at 75.8 µM]
17,Cn1cc(NC(=O)c2cc(NC(=O)c3cc(NC=O)cn3C)cn2C)cc1C(=O)NCCC(=N)N,inactive: 11.1%
18,Cc1ccccc1-c1cc(N2CCN(C)CC2)ncn1,inactive: 0.0883%
19,C=C[C@@H]1c2ccccc2N(S(=O)(=O)c2ccc(C)cc2)[C@H](c2ccccc2)C1(C#N)C#N,inactive: 3.47%
20,CCN(CC)C(=O)c1cccc(C)c1,inactive: 6.96%
21,O=C(c1cnccn1)N1CCC2(CC1)CN(C(c1ccccc1)c1ccccc1)C2,inactive: -3.2%
22,Cc1cc(Cl)ccc1OCC(=O)NCC1Cc2cc(-c3cnccn3)ccc2O1 (stereo not given),inactive: 3.41%

row,Compound,"activity change, negative = inhibition"
1,CC(C)(C)NCC(O)COc1ccc(NC(=O)NC2CCCCC2)cc1 (stereo not given),inactive: 4.92%
2,CCN(CC)C(=O)c1cccnc1,inactive: 17.1%
3,c1cncc(-c2cncnc2-n2ccnc2)c1,inactive: 25.6%
4,O=c1[nH]c(=S)[nH]c(-c2ccccc2)c1Cc1c(O)ccc2ccccc12,inactive: -0.122% [at 75.8 µM]
5,c1cncc(-c2cc(NCc3cccs3)ncn2)c1,inactive: 3.25%
6,COc1cc(C)c(CN2CCc3nnc(C(C)NC(=O)c4cccnc4)n3CC2)cc1C (stereo not given),inactive: -1.05%
7,C[C@]12CC[C@@H]3c4ccc(O)cc4CC[C@H]3[C@@H]1CC[C@@H]2O,inactive
8,Cc1noc(C)c1-c1cncnc1NCc1ccccc1,inactive: -1.08%
9,CCCC(CCC)C(N)=O,inactive: 23.2%
10,COc1cc(=O)n2c(c1C(=O)N(C)Cc1nonc1C)CCN(Cc1ccccc1F)CC2,inactive: 16.4%
11,CC(=O)N1CCC2(CCCN(C(=O)Nc3cccc(C#N)c3)C2)CC1,inactive: 15.2%
12,COc1ccccc1-c1cncnc1NCCN1CCOCC1,inactive: 25.5%
13,CC(=O)Oc1c(C)c(C)c2c(c1C)CC[C@@](C)(CCC[C@H](C)CCC[C@H](C)CCCC(C)C)O2,inactive
14,COc1ccccc1CCn1c(=O)c(CCc2ccccc2)nc2cncnc21,inactive: 7.08%
15,COC(=O)[C@@H]1CCCN1C(=O)c1cnn(-c2nccc(-c3cc(C)sc3C)n2)c1C1CC1,inactive: 0.942%
16,C[n+]1cc2c3c(ccc2c2ccc4cc5c(cc4c21)OCO5)OCO3,inactive
17,Cn1c(=O)c(-c2ccc(F)c(F)c2)nc2cncnc21,inactive: 4.45%
18,CCc1cc(C(=O)NCc2c(C)ncc3c2CCN(C(=O)C2=CCCC2)C3)no1,inactive: 16.1%
19,COc1ccc2c(c1)OCC(Cc1ccc(O)c(OC)c1)C2=O (stereo not given),inactive: 26.8%
20,CN(C)C(=S)SC(=S)N(C)C,inactive: 13.8%
21,COC(=O)[C@H](Cc1ccccc1)NS(=O)(=O)N[C@@H](Cc1ccccc1)C(=O)OC,inactive: -11.1%
22,COC(=O)CC(NC1CCN(c2nc(C)c3cc4c(cc3n2)CCC4)CC1)C(=O)OC (stereo not given),inactive: 31.8%

row,Compound,"activity change, negative = inhibition"
1,CCCCCCCCCCCCCCCCCC(=O)[O][Al],inactive: 17.1%
2,CC(=O)O[C@@H]1CC2CCC1(C)C2(C)C (stereo not given in full),inactive: 17.1%
3,O=C(O)C[C@H]1c2ccccc2S(=O)(=O)N1C1CCCC1,inactive: -5.1%
4,Cc1cccc(-c2cc(=O)c3cc(C)ccc3o2)c1,inactive: -1.28%
5,O=c1cnc2cnc(N3CCOCC3)nc2n1Cc1ccc(F)cc1,inactive: 21.5%
6,CC(C)CN1CC2(CCN(S(=O)(=O)c3ccccc3)CC2)C1,inactive: 15.9%
7,CC(=O)NCC(=O)NCC1Cc2cc(C)cc(-c3ccccn3)c2O1 (stereo not given),inactive: -9.15%
8,Cc1nn(-c2ccccc2)c(C)c1/C=N/N1CCN(Cc2ccccc2)CC1,inactive: -1.4% [at 75.8 µM]
9,O=C(c1csnn1)N1CCC2(CCCN(c3ncccn3)C2)CC1,inactive: -1.46%
10,C=C1C(=C/C=C2\CCC[C@]3(C)[C@@H]([C@H](C)/C=C/[C@@H](O)C4CC4)CC[C@@H]23)C[C@@H](O)C[C@@H]1O,inactive: 4.06%
11,Nc1ncnc2c1ncn2[C@@H]1O[C@H](CO)[C@@H](O)[C@H]1O,inactive
12,COc1cccc(C(=O)NCC2Cc3c(F)ccc(-c4ncccn4)c3O2)c1OC (stereo not given),inactive: 9.82%
13,O=[N+]([O-])c1cccc(/C=C/c2ccccc2)c1,inactive: 12.2%
14,c1ccc(CNc2nc(-c3ccc4c(c3)OCO4)nc3ccccc23)cc1,inactive: -13.7%
15,COc1cc(=O)n2c(c1C(=O)NC(C)c1ccco1)CCN(Cc1cc(C)cc(C)c1)CC2 (stereo not given),inactive: 13.6%
16,COc1ccc(C(=O)N2CCC3(CCCN(c4ccccc4)C3)CC2)cc1,inactive: 21.3%
17,COC(=O)C1CCN(Cc2ccc3c(c2)CN(C(=O)c2ccc(-n4cnnn4)cc2)CCO3)CC1,inactive: -21.2%
18,N[C@H](CO)Cc1cnc[nH]1,inactive: 10.9%
19,CN(C)Cc1ccccc1-c1nc(NC2CCNCC2)c2ccccc2n1,inactive: 2.54%
20,Cc1ccc(CN2[C@@H](c3ccccc3)COCCS2(=O)=O)cc1,inactive: -18.6%
21,COc1cc2c3cc1Oc1cc(ccc1O)CC1c4c(cc(OC)c(O)c4Oc4ccc(cc4)CC3N(C)CC2)CC[N+]1(C)C (stereo not given),inactive: 19.4%
